Assay results as given in the supplement of paper PMC3334620.
Whole data set: some 33,000 sequences, median “E-score (-0.5 to 0.5)” near -0.054, cut for the highest 2% near 0.35. Some of the results follow.

Molecular target: T1, Stb5 (UniProt P38699)
T1 sequence: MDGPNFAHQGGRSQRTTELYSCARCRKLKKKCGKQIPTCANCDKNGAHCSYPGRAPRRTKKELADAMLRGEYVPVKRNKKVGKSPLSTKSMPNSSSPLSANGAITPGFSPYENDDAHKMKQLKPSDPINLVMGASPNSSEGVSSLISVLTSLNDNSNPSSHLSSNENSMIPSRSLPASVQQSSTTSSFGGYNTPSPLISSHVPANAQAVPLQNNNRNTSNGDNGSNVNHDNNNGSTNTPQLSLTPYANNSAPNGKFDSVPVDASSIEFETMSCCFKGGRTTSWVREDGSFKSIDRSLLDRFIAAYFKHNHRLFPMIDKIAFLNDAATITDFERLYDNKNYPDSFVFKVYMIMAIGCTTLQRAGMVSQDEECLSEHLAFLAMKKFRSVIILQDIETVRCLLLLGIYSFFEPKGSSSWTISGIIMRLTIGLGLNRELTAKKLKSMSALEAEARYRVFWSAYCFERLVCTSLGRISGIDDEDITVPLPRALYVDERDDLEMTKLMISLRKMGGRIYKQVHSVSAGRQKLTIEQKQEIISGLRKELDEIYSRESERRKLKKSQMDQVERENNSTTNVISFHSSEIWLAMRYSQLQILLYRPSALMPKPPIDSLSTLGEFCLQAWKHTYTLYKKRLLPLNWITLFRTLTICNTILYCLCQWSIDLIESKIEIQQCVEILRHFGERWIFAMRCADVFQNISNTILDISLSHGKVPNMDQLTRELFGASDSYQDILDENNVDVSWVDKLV
Experiment: PBM E-score (8-mer binding enrichment) (E-score (-0.5 to 0.5)); higher = stronger / more preferred TF binding; most listed sequences are background and not binding sites
Settings: protein concentration: 200 nM; construct: GST-full length
Summary of the method: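 Using PURExpress in vitro transcription/translation, GST-tagged yeast transcription factors were made in full-length or DNA-binding-domain form. These were applied at about 100-200 nM to double-stranded universal all-10-mer Agilent arrays, and bound protein was detected with fluorescent anti-GST. Scans were normalised with masliner before the Universal PBM Analysis Suite assigned E-scores to ungapped eight-base words pooled with their reverse complements.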

Sequence | PBM E-score
GTATAGCA | -0.0177
GGGCAAAA | 0.214
GAACGCTA | -0.11
GCAGGGAC | -0.244
GCTAGAGC | -0.0873
ACGGGCAT | 0.363
AGACTGTG | -0.184
CTAATGTC | 0.05
ATATCCGC | 0.402
AGTTGTTC | -0.158
CAAAAAGG | -0.182
GTACGGAA | 0.117
ATATCGGA | 0.166
CAGCCTGG | -0.0787
CTCCTACC | 0.0811
TACCCGTA | 0.0685
TCGGATAA | 0.272
AAAAGGGT | -0.27
TCTTATAA | 0.214
ATCGCCGA | 0.387
AGTCCCCA | -0.272
CGGTCAGA | 0.17
CGCGTAAC | 0.16
TCACTCCA | -0.135
CAGCGCTC | 0.0694

Sequence | PBM E-score
ATTAAAGC | 0.129
CTTCGCGA | 0.0987
CGTTATAA | 0.23
AGCAGTTC | -0.177
AAATGGAC | 0.141
TCAGGTAA | -0.0797
AGGCCATC | -0.126
TACGGGGA | 0.267
ATCAGCCA | -0.128
AAATAATG | -0.022
CCGAATAC | 0.159
GGACGAAC | 0.154
GCTAAGCA | 0.0819
AACGTAGT | -0.132
ATATGGTA | -0.205
CACATTGA | -0.00508
GTAAGATA | 0.0697
ACCCTGGC | -0.262
CGTTGTAA | -0.00989
TATCAAAA | -0.0856
GATCACAA | 0.0269
ATATACAA | 0.0395
CTCGTCAC | -0.166
ACTACATC | -0.147
GAAACGGC | 0.202

Sequence | PBM E-score
CAACTTTA | -0.124
GCCCGAGA | 0.0794
CCAAGCAC | -0.174
GTGTGTAA | -0.233
ACGATCGT | -0.249
AGAACCAC | 0.0238
GGCCTGTA | -0.0679
CCTCTTGA | -0.421
GTGGGGAA | 0.00123
AAGGCCAT | 0.107
CTGCGCAC | 0.0783
GCCGGTCA | 0.198
GGTGTTAA | 0.447
ACCATTGC | 0.0412
GCGAAACA | -0.0698
CGAGTTAC | -0.104
AGAGGTTC | -0.0835
CTCACGAG | -0.214
CTCAATTC | -0.175
ATCATGCA | -0.289
ACACGTGC | -0.133
CAACGGTA | 0.228
ATAAGGAC | -0.129
CACAGCAG | -0.283
ACGGGAGC | -0.0502

Sequence | PBM E-score
TAGGTCCA | -0.0733
CCAGATGA | -0.162
AATACGTA | 0.087
ATTATCAC | 0.137
TATCTTAA | -0.0272
AGTCTCAC | -0.0901
CATGAACG | -0.0401
GGGGGCGA | -0.0746
CAGCCACA | -0.141
AATCGATT | -0.0447
CCCAAGCC | -0.044
CTGGCACC | 0.221
CTGCGTAC | -0.135
CACCGCAC | 0.357
GCATGGCA | -0.0129
CAGCTTGG | -0.162
ACGGGTAA | -0.0254
GCGAAACC | 0.0669
TCTATAGA | -0.0415
GCGCCCAA | 0.0316
AAAGGAAC | 0.0452
AGGCCCAT | -0.28
GAGGCCCC | -0.0211
CTAACCTC | -0.0311
CCGAGAGC | 0.0793

Sequence | PBM E-score
ATTAGCAA | -0.06
ACCGCCGC | 0.383
AAAGGTTA | -0.313
ACCGCGTC | 0.182
TATCGTAA | -0.0935
GGTGATAC | 0.369
AAAAGCAG | -0.395
TCCGGCGA | 0.267
GACCTCCA | 0.0344
AACGCGGC | 0.225
CCGGACAA | 0.321
GGAGTATA | 0.315
CGGTCTTC | 0.227
GTGATCGA | -0.171
CCCATGAG | -0.192
ATGAATGA | -0.12
GGAAAGCC | 0.0225
ATTGGCCA | -0.198
TGGTGCAA | -0.166
GTCCCTTA | -0.0871
AACGACGA | -0.0943
GAGAGCTA | -0.161
GAAGATGA | -0.208
ACCGTACA | 0.121
GTACGCCA | -0.13

Sequence | PBM E-score
ACTAAACG | -0.212
CTGACTAC | -0.144
ACCGGCGA | 0.281
ACTGTGAT | -0.134
CTCTATAA | -0.145
TACTGACA | -0.152
CATATAGG | -0.105
ATAAGCAC | 0.0792
AAACTATC | -0.115
CTGGGTGC | -0.0644
ACATCATC | -0.0646
GGCCAATA | 0.162
CGATTCCG | 0.243
AGCTTACA | -0.0474
CTCGTAGA | -0.338
GGGAGGAA | 0.0313
TAGCGGCA | 0.372
GAAGTGGA | 0.0388
AAACCAGC | -0.0596
ATGTCCTA | 0.0642
ACATCCCT | -0.186
TGTAGGAA | -0.147
AGGTTGAA | -0.025
CACGTCCC | -0.137
AAGAGCTG | -0.24

Sequence | PBM E-score
AAATACCG | 0.432
AGGCCCAA | -0.133
TTATAGAA | -0.0532
CGCCACAG | -0.00771
ATTGAAAG | -0.0762
CCTGTTTC | -0.296
CCGAAATA | 0.316
AGCAGTCA | -0.265
ACTTTTGG | -0.0525
AAACCGTG | -0.0899
CCGTTACA | 0.185
CCTGCAGC | -0.251
GCCGCATA | 0.279
TATCCATA | -0.253
TGCCAACA | -0.198
AAATAGAT | 0.104
AGTTAGTG | -0.201
TATCGGGA | 0.275
ATTGACCC | 0.0691
ACTCAACG | 0.0371
ACGGCGCT | 0.338
ACTTAAGG | 0.114
ATAGGTGG | -0.204
CAAATCAG | -0.234
GGGGCCCA | -0.148

Sequence | PBM E-score
TACGACGA | -0.229
GGCTCATA | -0.0497
CTGATAGC | 0.0355
CATTCCGA | 0.0747
AGCACCTC | -0.163
CCTAAATA | -0.027
ACCCCAAA | -0.179
ATATTTCA | -0.0823
AACAAGGG | -0.0706
AAACAAAC | -0.153
CTCCCAAA | -0.237
AAGATCTG | -0.223
AAAATGGT | 0.0967
CGCATCAA | 0.126
GTTGTCAA | 0.0212
GCACATGA | -0.218
CCCGGTCA | 0.237
AGAAAACC | 0.0845
GGAATACC | 0.24
GCTATTAA | 0.104
TCACTTAA | -0.0332
AAGCCCCT | 0.0404
ATATTGAC | -0.0193
GTAATACA | -0.0433
ACCATTAG | 0.172

Sequence | PBM E-score
CGACGTTA | 0.144
ACTACGGC | 0.0314
GACGCGGC | 0.145
CAAGCGGC | 0.379
ACTTGACA | -0.1
CTCTTTAC | 0.088
TTGACCAA | -0.122
ACATGGCC | -0.0187
ACAACCTA | -0.122
CGTAACAA | 0.0955
ACGAGTCG | -0.197
CGAAGGAG | -0.0669
ATAAACTA | 0.0863
ACGTCCGC | 0.367
ACTCGAAA | -0.0845
TACATCTA | -0.137
GAGAGACC | 0.0815
ACAACCGT | -0.00109
GTCTCTGA | -0.076
